Laboratory results from PubChem BioAssay AID485344 (National Center for Advancing Translational Sciences (NCATS), 2010).
In all, about 340,000 compounds went through this assay and about 6,900 (2%) were called active. Cut-off read from the data, not from the text of the source: active = inhibition above about 30%; inactive = below that, where a call was filed. The list shows a part of the results, in another mix than the full data. Where no call is shown, the source filed none.

Target: D(2) dopamine receptor (Homo sapiens) (UniProt P14416)
Assay: HTS Assay for Allosteric Antagonists of the Human D2 Dopamine Receptor: Primary Screen for Antagonists; note: 0% is about no effect
Conditions: HEK293 TREx D2 cells, calcium flux, dopamine EC80; at 10 µM; stronger effect = higher value
Outline: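 Read-out: kinetic calcium fluorescence (1 cycle/s) in inducible HEK293 T-REx D2 cells after an EC80 dopamine addition that followed 180 s compound preincubation. Loss of the dopamine response indicates antagonism.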

Sequence of UniProt P14416 (P14416 whole entry, looked up): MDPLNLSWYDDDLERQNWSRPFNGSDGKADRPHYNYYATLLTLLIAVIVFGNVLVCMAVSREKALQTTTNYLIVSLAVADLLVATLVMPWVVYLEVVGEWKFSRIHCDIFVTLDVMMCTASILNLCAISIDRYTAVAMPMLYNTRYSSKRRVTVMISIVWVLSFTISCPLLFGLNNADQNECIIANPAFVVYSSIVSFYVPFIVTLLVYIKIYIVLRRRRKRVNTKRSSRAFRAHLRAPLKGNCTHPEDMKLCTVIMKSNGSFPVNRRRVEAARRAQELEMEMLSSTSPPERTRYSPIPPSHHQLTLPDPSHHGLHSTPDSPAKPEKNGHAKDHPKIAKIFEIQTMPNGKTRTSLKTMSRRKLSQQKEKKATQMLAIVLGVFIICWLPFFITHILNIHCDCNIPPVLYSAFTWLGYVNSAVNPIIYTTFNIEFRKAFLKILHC

Structure (SMILES)	inhibition
COc1ccc(N2CCN(C(CNC(=O)C(=O)NCCCN(C)C)c3cccnc3)CC2)cc1 (stereo unspecified)	-0.0984%
COc1ccccc1NCc1cccn1-c1nnc(N2CCOCC2)s1	2.2%
O=C(NC1CC1)C1CCN(C2CCN(C(=O)Cc3ccc(F)cc3)CC2)CC1	active: 34.4%
Cc1oc2ncn(C)c(=O)c2c1C(=O)NC(C)c1ccccc1 (stereo unspecified)	-3.78%
O=C(CSC1=Nc2ccccc2N=C(c2ccc(F)cc2)C1)NCc1ccc(F)cc1	2.46%
Cc1ccc(C)c(CN2C(=O)CSc3ccc(C(=O)NCc4ccc(F)cc4)cc32)c1	3.47%
Cc1ccc(CSCc2ccc(C(=O)NCCc3ccc(Cl)cc3)o2)cc1	0.424%
Cc1cc(C)cc(N2C(=O)CSC23C(=O)N(CC(=O)NCCc2ccccc2)c2ccccc23)c1 (stereo unspecified)	-1.58%
CCOC(=O)C1=C(CS(=O)(=O)c2ccc(C)cc2)NC(=O)NC1c1ccc(C(C)C)cc1 (stereo unspecified)	-17.6%
CN(C(=O)c1ccc2c(c1)N(Cc1cccc(Cl)c1)C(=O)c1ccccc1S2=O)C1CCCCC1 (stereo unspecified)	0.181%
Cn1c(CN2CCCC2)nc2cc(NC(=O)COc3ccccc3)ccc21	active: 47.5%
COc1ccc(NC(=O)CCS(=O)(=O)c2cccc3nonc23)cc1Cl	6.81%
CCc1nnc(SCc2nc(-c3ccc(OC)c(OC)c3)oc2C)c2cc3sc(C)cc3n12	-10.7%
Cc1ccc(/C=C/c2onc(C)c2S(=O)(=O)N2CCC(C(=O)NCc3ccc(C)o3)CC2)cc1	-4.74%
O=C(N/N=C/c1cc(Br)c(Br)o1)c1cc2ccccc2o1	active: 33.1%
COc1cccc(C(=O)NC(=S)Nc2ccc(N3CCCC3)cc2)c1	active: 56.5%
COc1cccc(CNC(=O)Cc2ccc(NC(=O)N3CCCCc4ccccc43)cc2)c1OC	-22.2%
Cc1cccc(NC(=O)CSc2nc(-c3ccccc3)cn2-c2ccccc2)c1C	4.41%
Cc1ccc(C)c(-n2c(CCC(=O)O)ccc2-c2ccc(Cl)cc2)c1	16.3%
COc1ccc(Nc2ncc(C(=O)N3CCN(c4cccc(Cl)c4)CC3)c3ccccc23)cc1	-2.65%
COCCn1ccc2c(OCC(=O)Nc3cccc(OC)c3)cccc2c1=O	5.7%
COc1ccc(CNC(=O)c2c(O)nc3cc(C)ccn3c2=O)cc1	13.2%
Cc1nc(C)c(-c2ccc(SCC(=O)Nc3ccc(C)c(F)c3)nn2)s1	13.3%
CCc1ccc2ncc3c(-c4ccc(F)cc4)nn(CC(=O)NCc4ccccc4)c3c2c1	5.65%
Cc1ccc(C(C)C)c(OCC(=O)Nc2ccc(C(=O)OC3CCCCC3)cc2)c1	24.1%
CCOc1ccc(-c2nc(SCC(=O)Nc3ccc(C)c(C)c3)n3[nH]c(=O)cc3n2)cc1	-4.4%
